Source: the supplement of paper PMC7335073
The full ranking holds about 4,100 sequences; the median of “relative CpG methylation activity (normalised to average over all NNNCGNNN flanks)” is about 0.87, and the highest 2% start at about 2.4. Some of the results follow.

These sequences were tested against DNMT3A catalytic domain (mouse) (UniProt O88508) (assay: relative CpG methylation activity (normalised to average over all NNNCGNNN flanks) (relative (1 = mean)); higher = more methylation of the central CpG). Conditions: system: in vitro, murine catalytic domain; CpG state: hemimethylated substrate pool; residues: 608-908.
Method: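 Deep enzymology: a pool of dsDNA substrates with a central CpG flanked by 10 random nucleotides on each side was methylated by the murine DNMT3A or DNMT3B catalytic domain (0.8 mM SAM, 37 °C, 60 min). Methylation was then read out by hairpin ligation, bisulfite conversion and NGS. Values are the average methylation of each NNNCGNNN context (±3 flanks; the outer flanks are random and averaged over), normalised to the overall mean, so 1 = average activity.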

Sequence | relative CpG methylation activity
CCGCGACT | 0.959
TAACGACA | 0.757
CTTCGAAC | 1.43
CTCCGCAT | 1.57
AATCGAAC | 0.609
GGCCGGCG | 0.667
TACCGGAC | 0.736
GGGCGGCT | 0.408
ATCCGTAA | 1.55
GATCGCGT | 0.317
TCGCGCAA | 0.881
AGGCGGCA | 0.573
ACCCGCGA | 0.886
GGGCGCTA | 0.886
AATCGTTC | 0.385
TCCCGCCG | 1.54
ATCCGGAA | 0.939
ATACGTTA | 1.8
CCTCGGAA | 0.89
CCTCGTGC | 0.658
TTCCGGGC | 1.57
GCGCGGCA | 0.876
TACCGTAA | 0.741
GGCCGTGT | 0.253
GGACGGCG | 0.549

Sequence | relative CpG methylation activity
GCACGGCG | 0.955
CTTCGACC | 1.23
GTACGCCT | 2.41
CAGCGCTT | 1.34
CTCCGGAT | 1.39
TTTCGTGT | 0.603
ATCCGAAG | 0.858
AGGCGCAA | 0.518
TTCCGCAA | 1.97
TCCCGTGC | 0.865
TTGCGCAA | 1.32
GTACGACC | 2.03
GGACGTTA | 0.944
CGCCGTAT | 0.281
AGACGTGC | 0.425
ATGCGCCT | 2.22
GTGCGGGC | 0.714
AAACGCCG | 1.05
GTTCGACG | 0.833
CAACGGGG | 0.45
TGCCGGTG | 0.417
GGTCGAGT | 0.224
GTCCGCGA | 1.63
GCGCGGTT | 0.606
GCTCGTCG | 1.41

Sequence | relative CpG methylation activity
CGCCGGCT | 0.619
GGACGGCA | 1.15
GGTCGATT | 0.548
CAGCGCTG | 0.814
ATACGAAG | 1.39
GACCGCCC | 1.92
AGACGAAT | 0.678
AAACGGCC | 1
CTTCGCGT | 1.21
ATTCGTCG | 1.06
TTGCGGTT | 0.956
CTACGCCT | 2.79
TGTCGTGT | 0.125
CTTCGTCC | 2.08
GAGCGGTA | 0.682
TACCGGAT | 0.52
TGACGTAA | 0.953
ACGCGGAG | 0.291
AAACGGGG | 0.413
CTACGCAG | 1.43
GGACGAGT | 0.693
GGCCGGTG | 0.339
AGCCGCGG | 0.105
ATTCGACA | 0.787
AAGCGACT | 0.584

Sequence | relative CpG methylation activity
ACACGGAT | 0.928
CACCGCCC | 1.82
CATCGCAT | 0.689
AAACGGGT | 0.601
GCGCGCCC | 2.18
GTGCGGCA | 1.34
TACCGGTT | 0.569
TCACGAAT | 1.07
CGCCGTAA | 1.14
ATGCGTGA | 0.656
ATTCGCAT | 1
CAACGGAG | 0.355
CCCCGGAC | 1.16
ATTCGATT | 0.683
GTGCGCAA | 1.3
CGTCGTGA | 0.12
CAGCGAGC | 0.568
TTCCGCTC | 2.73
GAACGCTC | 1.64
CTACGTTC | 2.3
CCTCGATC | 1.26
AAGCGCGC | 0.435
ACCCGTCC | 1.95
AAACGTTT | 0.364
TCGCGAGC | 1.48

Sequence | relative CpG methylation activity
CCACGGTA | 1.35
ACGCGCTG | 1.61
TGACGCTA | 0.76
CTCCGATT | 1.36
CTACGGAG | 0.543
GCGCGCTC | 1.9
ATGCGCCC | 2.44
ACTCGCGA | 0.856
CGCCGAAG | 0.375
CTACGAGT | 1.7
TCCCGGTT | 0.65
TTCCGCCA | 2.2
ACTCGATA | 0.844
CATCGAAA | 0.654
CTACGTCA | 2.51
AGACGCTC | 1.49
CGACGCGG | 0.194
CTCCGGCT | 1.42
CAGCGTTA | 0.588
TGACGGTA | 0.524
CGACGAGC | 1.31
AGTCGGGG | 0.0893
ACGCGGGG | 0.494
AGTCGGGA | 0.423
TCGCGACC | 0.92

Sequence | relative CpG methylation activity
TACCGGGG | 0.301
AATCGGTC | 0.38
GATCGGTG | 0.139
ACCCGTTA | 1.12
CCTCGCTA | 1.65
AAGCGCTG | 0.789
GTTCGTCG | 1.19
GGACGGAG | 0.703
CTCCGCCT | 2.45
GTCCGGCT | 1.47
TCCCGGCT | 0.955
GTCCGCAA | 1.6
TTTCGAGG | 0.481
TTACGATA | 1.9
TCACGATG | 0.606
TTGCGCGG | 0.8
ATGCGCCG | 2.39
ATGCGCTC | 2.02
TCGCGGTA | 0.918
CATCGTCC | 1.28
CACCGCGC | 0.78
TCCCGCGT | 0.745
TTTCGTCG | 1.44
TATCGTTG | 0.26
GGGCGGCA | 0.323

Sequence | relative CpG methylation activity
AGGCGATC | 1.05
CCCCGCAG | 0.612
ACACGAGG | 0.735
TGGCGGCT | 0.294
AGTCGGGC | 0.438
GGCCGTCA | 1.15
CGGCGTAT | 0.347
CTTCGTGA | 0.6
ACCCGGCT | 1.51
ATGCGTGT | 0.505
CACCGCTC | 1.78
CCACGGGG | 0.822
ACTCGTGG | 0.361
TTACGTAG | 1.34
ACACGCGA | 1.22
TAACGTAA | 0.985
GTGCGTCA | 1.88
AAACGGTT | 0.308
GCTCGACG | 0.796
TTCCGCTA | 2.3
AAACGAAT | 0.506
GTGCGGTC | 1.39
AAACGTAA | 0.891
GGTCGCTC | 1.34
ATACGCTT | 2.67

Sequence | relative CpG methylation activity
TAACGGAC | 0.971
CCACGGCT | 1.26
AGACGGAA | 0.645
ATTCGGGC | 0.787
TCACGTTA | 1.39
GCGCGGAC | 1.13
CTGCGGTC | 1.6
TGACGCCC | 1.33
ACTCGCTT | 1.97
GGTCGGCT | 0.702
TTACGGTA | 1.48
TGCCGATG | 0.451
GTGCGAGA | 1.33
AGCCGCGT | 0.641
ATGCGGTG | 0.407
CAACGTAT | 0.658
GTCCGTCA | 2.41
GACCGAGC | 1.78
TGTCGGTG | 0.463
TCACGAGT | 1.2
CAGCGTTC | 0.639
AATCGTAC | 0.254
GACCGACA | 1.18
AATCGACG | 0.266
TGACGAGT | 0.36

Sequence | relative CpG methylation activity
ATTCGAAA | 1.06
CCGCGGTG | 0.183
GAACGGCT | 0.892
TCGCGCCG | 1.28
CAACGACT | 0.595
GATCGAAT | 0.216
TCCCGGGT | 0.556
TAGCGTTG | 0.321
CGACGACA | 0.666
TTACGAGG | 1.2
GTGCGTGC | 1.11
CCTCGAGG | 0.427
CTCCGCAA | 1.65
CAACGGGA | 0.628
TCGCGAAA | 0.693
AGACGAGC | 0.966
CTGCGCTA | 1.62
ACACGATC | 1.78
TTTCGCTA | 1.59
GAGCGACA | 0.685
GCCCGCCC | 2.25
CCCCGTCG | 2.05
ACTCGCTG | 1.34
TGCCGCCG | 1.03
GTCCGGAC | 1.77

Sequence | relative CpG methylation activity
TCCCGTGT | 0.354
GAGCGCAC | 1.05
TGCCGCCA | 1.17
CACCGGCT | 0.844
TTGCGGTC | 1.43
TGACGGAT | 0.512
TTCCGCGG | 0.968
ACGCGAGC | 1.45
TATCGATT | 0.515
AGGCGCCT | 1.88
CTTCGAGG | 0.462
AGACGTCC | 1.39
CACCGGGG | 0.35
AGCCGTCG | 1.08
CATCGCTT | 1.58
ATCCGAAC | 2.23
TCTCGCGG | 0.465
CTTCGGTG | 0.51
AGCCGAAT | 0.558
GAGCGGCG | 0.455
GCACGTGT | 0.543
CTGCGTAA | 1.61
CACCGGAT | 0.404
CAACGCTT | 1.27
TATCGACC | 0.711

Sequence | relative CpG methylation activity
TTGCGCCA | 1.75
AGACGAGT | 0.755
ATTCGTAG | 0.732
AACCGAGA | 1.03
TTCCGCTT | 2.48
TGTCGATT | 0.505
TATCGGTT | 0.38
CTACGAGA | 1.72
CAGCGGGC | 0.44
CAACGGCT | 0.858
AGGCGCCA | 1.26
GACCGGGA | 0.644
GAACGGTG | 0.556
CGGCGCCA | 1.14
CCTCGCTG | 1.27
GCCCGGTC | 0.978
CGCCGACT | 0.572
TACCGGGA | 0.417
TCCCGTTA | 0.954
GAGCGAAT | 0.424
TCTCGCCG | 1.58
AATCGCGC | 0.546
GTACGGCG | 1
CGGCGGCT | 0.439
AAACGAAA | 0.559

Sequence | relative CpG methylation activity
GCTCGCCT | 2.09
TGACGCCA | 0.932
GGGCGGAT | 0.435
GGTCGGCC | 0.793
TACCGCCA | 1.18
AAGCGAAG | 0.346
AGGCGTCC | 1.54
GTGCGGCC | 2.06
TACCGGAG | 0.326
GAGCGCTA | 0.62
GACCGTCC | 1.32
ATGCGAGT | 1.3
GATCGAAG | 0.281
TATCGTCG | 1.29
GATCGCTT | 0.75
CCACGCGG | 0.503
ATTCGACC | 0.952
CGCCGAAC | 1.36
TTTCGGCA | 0.864
ATGCGTAC | 1.4
CAGCGAGG | 0.287
AAACGATT | 0.362
GTACGGGT | 1.85
GTACGTAA | 2.1
ACCCGTGT | 0.68

Sequence | relative CpG methylation activity
TATCGTGA | 0.406
ATGCGGTC | 0.906
GCCCGGCG | 0.38
TGCCGGAC | 0.573
GCGCGATC | 1.35
CCTCGCAT | 1.36
CAGCGCCT | 1.1
TACCGCTC | 2.06
TGGCGCTT | 0.882
TTGCGGGT | 1.3
TCCCGTAG | 0.462
GCACGTAC | 1.53
TATCGACT | 0.753
ATGCGAGC | 1.92
CCGCGAGA | 0.625
GAGCGGCT | 0.556
TAGCGGAT | 0.278
GTCCGGTT | 1.48
GAGCGCAA | 0.614
TCGCGGAG | 0.182
GTGCGGGT | 1.12
GAACGGCA | 0.738
GGCCGCCC | 1.79
AAGCGTCA | 0.81
ATTCGGCA | 0.844

Sequence | relative CpG methylation activity
CTACGCCG | 2.5
TATCGACA | 0.702
TATCGCCA | 1.03
CCCCGGAT | 0.86
TGCCGCCC | 1.86
GCCCGCAT | 1.18
GAACGGTC | 0.986
GAACGCAG | 0.413
CATCGGGT | 0.263
GGTCGAAT | 0.287
TCCCGGAG | 0.432
TCTCGCGA | 0.76
GTACGGAT | 1.33
ACACGATT | 1.29
CACCGTCA | 1.17
GCGCGCTA | 1.21
GTACGTCT | 2.06
GGTCGAAC | 0.51
AGACGAAA | 0.559
